Experimental data published in PubChem BioAssay AID1508649 (National Center for Advancing Translational Sciences (NCATS), 2021).
The whole screen tested about 43,000 compounds, of which about 830 (1.9%) were called active. The inconclusive results got no clear call from the source; some entries with a clear call stand among them for comparison. Rule for the calls: active = clear falling dose curves in both reporters; inconclusive = both reporters move, but less clearly or upward; inactive = either reporter flat; the % is the NLuc reporter signal. Potencies of inconclusive entries are left out as doubtful fits.

Assay: Cell-based coincidence reporter assay to measure PMP22 gene transcription in S16 Pmp22-F2sN cells - Primary screen
Conditions: S16 Pmp22-F2sN Schwann cells (luciferase reporters placed in the Pmp22 gene), FLuc/NLuc coincidence luminescence, 24 h; measured here: NLuc reporter readout, at 57.5 µM (top of the series); activity change, negative = inhibition: at the top concentration
How it was run: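 S16 Schwann cells carrying FLuc/NLuc coincidence reporter in the Pmp22 3' UTR treated with compound 24 h at 37C; FLuc then NLuc luminescence read sequentially by dual-luciferase reagents.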
% is set by controls: 0 for no effect and ±100 for the full control effect; potency is the fitted concentration of half-maximal effect; tags give direction and shape of the fitted curve.

Row | SMILES | Potency | activity change, negative = inhibition
1 | CCc1ccc(OCC(=O)Nc2cc3oc4ccccc4c3cc2OC)cc1 | active: 6.45 µM | –
2 | CCc1ccccc1NC(=O)Cn1c(=O)n(Cc2ccc3c(c2)OCO3)c(=O)c2ccc(C(=O)NC3CCCCC3)cc21 | active: 12.1 µM | –
3 | Cc1cc2oc(C(=O)Nc3c(C(=O)Nc4ccccc4)oc4ccccc34)cc(=O)c2cc1C | – | inactive: -8.51%
4 | CCOC(=O)c1c(C)[nH]c(CCC(=O)Nc2cc(C)ccc2OC)c1C | inconclusive [phenotype inactive, single point] | –
5 | Cc1ccc2c(c1)C(c1ccc(F)cc1)N(C(=O)COc1ccc(Cl)cc1Cl)CC(=O)N2 (centres undefined) | inconclusive [phenotype inactive, single point] | –
6 | CCc1ccc(CNC(=O)c2ccc(NC(=O)N3CCCCc4ccccc43)cc2)cc1 | inconclusive [phenotype inactive, single point] | –
7 | CC(=O)Nc1cccc(NC(=O)C(=O)NCCc2sc(-c3ccccc3)nc2C)c1 | active: 2.47 µM | –
8 | Clc1cccc(-n2ncc3c(N4CCCCC4)ncnc32)c1 | – | inactive: -4.63%
9 | COc1ccccc1/C=C/c1nc2ccccc2n1C(C)C | inconclusive [phenotype inactive, single point] | –
10 | Cc1ccc(/C=C/c2onc(C)c2S(=O)(=O)N2CCC(C(=O)N3CCC(N(C)C(C)C)CC3)CC2)cc1 | inconclusive [phenotype inactive, single point] | –
11 | Cc1ccc(CN2CCSc3ccc(C(=O)N4CCN(c5ccccc5)CC4)cc32)cc1 | inconclusive [phenotype inactive, partial curve] | –
12 | CCOC(=O)c1ccccc1NC(=O)CSc1nc2cn(CC)nc2c(=O)n1Cc1ccc(Cl)cc1 | inconclusive [phenotype inactive, single point] | –
13 | Cc1ccc(C)c(N2CCN(C(=O)c3ccc(NC(=O)c4nsc5ccccc45)cc3)CC2)c1 | – | inactive: 0.615%
14 | Cc1ccc(S(=O)(=O)N(CC(O)Cn2c3ccccc3c3ccccc32)c2cccc(C(N)=O)c2)cc1 (centres undefined) | inconclusive [phenotype inactive, single point] | –
15 | COc1ccc(NC(=O)CSc2nc(-c3cccs3)cc(C(F)(F)F)n2)cc1OC | active: 4.22 µM | –
16 | CCOc1ccc(CNCc2c(C(=O)O)n(Cc3ccccc3F)c3cc(OC)ccc23)cc1 | – | inactive: 4.32%
17 | Cc1ccc(-c2c(C)n3c4c(=O)n(C)c(=O)n(C)c4nc3n2CCO)cc1 | active: 4.8 µM | –
18 | Cc1cccc(N2CCN(C(=O)c3cn(CC(C)C)c(=O)c4c3c3ccccc3n4C)CC2)c1C | inconclusive [phenotype inactive, partial curve] | –
19 | COc1cccc(Nc2sc(C(=O)c3ccc(F)cc3)c(N)c2C(=O)NCc2ccc(Cl)cc2)c1 | – | inactive: -42%
20 | CCC(C(=O)Nc1c(C)cc(C)cc1C)n1c(=O)c(-c2ccccc2NC(C)=O)nc2ccccc21 (centres undefined) | – | inactive: -12.8%

Row | SMILES | Potency | activity change, negative = inhibition
21 | CN(Cc1ccccc1)S(=O)(=O)c1cc(Br)cc2c1N(C(=O)C1CC1)CC2 | inconclusive [phenotype inactive, partial curve, poor fit] | –
22 | CC(C)c1ccc(S(=O)(=O)c2nnn3c2nc(N2CCCCC2)c2sccc23)cc1 | inconclusive [phenotype inactive, single point] | –
23 | CC(=O)c1cccc(NC(=O)c2cc(-c3ccc(Cl)s3)nc3ccccc23)c1 | inconclusive [phenotype inactive, single point] | –
24 | Cc1nnc(N2CCC(C(=O)NCCc3ccccc3Cl)CC2)c2nn(-c3ccccc3)c(C)c12 | inconclusive [phenotype inactive, partial curve] | –
25 | COc1ccccc1Cc1nc2ccccc2nc1SCC(=O)N(C)c1ccc(F)cc1 | inconclusive [phenotype inactive, single point] | –
26 | Cc1cccc(N2CCN(C(=O)c3cccc(-n4c(C)nc5cccnc54)c3)CC2)c1C | active: 12.7 µM | –
27 | CCCCCCOc1ccc(C2C(=O)N(C3CCCCC3)CC(=O)N2CCC)cc1 (centres undefined) | inconclusive [phenotype inactive, partial curve] | –
28 | Cc1cc(OCCCSc2nc(-c3ccc(C(C)(C)C)cc3)nc3cc(=O)[nH]n23)ccc1Cl | inconclusive [phenotype inactive, single point] | –
29 | COc1cc(-c2cc(OC)c3c(C)oc(C)c3c(=O)c2)ccc1OC(=O)c1ccccc1C | inconclusive [phenotype inactive, single point] | –
30 | COc1cccc(NC(=O)CSc2nc3ccc(NC(=O)c4ccco4)cc3s2)c1 | inconclusive [phenotype inactive, single point] | –
31 | COc1ccc(Cl)cc1NC(=O)CN(c1cc(C)cc(C)c1)S(=O)(=O)c1c(C)n[nH]c1C | inconclusive [phenotype inactive, single point] | –
32 | COc1ccc(Nc2cc(C)nc(-n3nc(C)cc3C)n2)cc1Cl | active: 5.53 µM | –
33 | CCc1ccccc1NC(=O)C1CCCN(S(=O)(=O)c2cccc3nsnc23)C1 (centres undefined) | inconclusive [phenotype inactive, single point] | –
34 | CCOc1ccc(-c2nc3c(C#N)c[nH]n3c2NC2CCCC2)cc1 | inconclusive [phenotype inactive, single point] | –
35 | O=C(CN1CCSc2ccccc21)N1CCN(c2cccc(Cl)c2)CC1 | inconclusive [phenotype inactive, single point] | –
36 | O=C1COc2cc(S(=O)(=O)CCC(=O)N3CCN(c4cccc(Cl)c4)CC3)c(Cl)cc2N1 | inconclusive [phenotype inactive, single point] | –
37 | O=C(COc1ccccc1)Nc1nnc(S(=O)(=O)N2CCCCCC2)s1 | inconclusive [phenotype inactive, single point] | –
38 | Cc1ccccc1-c1nnc(C2CCN(S(=O)(=O)c3ccc(Cl)cc3)CC2)o1 | inconclusive [phenotype inactive, single point] | –
39 | CCOC(=O)c1ccc(N2C(=O)c3[nH]nc(-c4ccc(OCC)cc4)c3C2c2ccc(OC)cc2OC)cc1 (centres undefined) | inconclusive [phenotype inactive, single point] | –
40 | CCS(=O)(=O)c1ncc(Cl)c(C(=O)Nc2c(C(=O)c3ccc(C)cc3)oc3ccccc23)n1 | active: 2.12 µM | –

Row | SMILES | Potency | activity change, negative = inhibition
41 | COc1ccc(CCNC(=O)CCCn2c(=O)c3ccccc3n(CC(=O)Nc3ccc(C)cc3Cl)c2=O)cc1OC | inconclusive [phenotype inactive, single point] | –
42 | CCc1ccc(NC(=O)c2ccc(F)c(S(=O)(=O)N3CCc4ccccc4C3)c2)cc1 | – | inactive: -21.4%
43 | COc1cc(Br)c(C2CC(=O)Nc3cc4c(cc32)OCCO4)cc1OC (centres undefined) | inconclusive [phenotype inactive, single point] | –
44 | CCc1ccc(CNC(=O)c2ccc(-n3c(C)cc4c3CCC(C)C4)cc2)cc1 (centres undefined) | inconclusive [phenotype inactive, partial curve] | –
45 | COc1ccc(CNC(=O)Cn2c(=O)n3nc(-c4cccc(F)c4)nc3c3ccccc32)cc1OC | – | inactive: -20.2%
46 | O=C(NCCCN1CCN(c2ccccc2)CC1)c1ccc2nc(CCc3ccccc3)oc2c1 | active: 18.9 µM | –
47 | CC(Oc1ccc(Br)cc1)C(=O)N(Cc1nc(-c2ccccc2)no1)C(C)C (centres undefined) | inconclusive [phenotype inactive, single point] | –
48 | Cc1cc(Nc2cccc(Cl)c2)nc2ccc(NC(=O)c3cccc(N(C)C)c3)cc12 | – | inactive: -71.1%
49 | Cc1ncc(CO)c2c1Oc1nc(-c3ccc(F)cc3)nc(SCc3ccc(F)cc3Cl)c1C2 | inconclusive [phenotype inactive, single point] | –
50 | Cc1cccc(NC(=O)c2ccc3nc(CCc4ccccc4)oc3c2)c1C | – | inactive: -58.5%
51 | O=C(Cc1ccccc1)Nc1nnc2n1CCS2 | inconclusive [phenotype inactive, single point] | –
52 | COc1ccc(-n2ccnc(NCCc3ccc(Cl)cc3)c2=O)cc1OC | inconclusive [phenotype inactive, partial curve] | –
53 | CCOc1ccc(-c2cc(C(=O)NCCCOC)c3c(-c4ccc(CC)cc4)[nH]nc3n2)cc1 | inconclusive [phenotype inactive, single point] | –
54 | Cc1cn2c(=O)cc(COC(=O)c3ccc(NC(=O)COc4ccc(C)c(C)c4)cc3)nc2s1 | – | inactive: -1.23%
55 | Cc1ccc(CN2c3ccccc3-c3nc(SCC(=O)Nc4c(C)cc(C)cc4C)ncc3S2(=O)=O)cc1 | inconclusive [phenotype inactive, partial curve, poor fit] | –
56 | COc1ccc(C(=O)NCCn2cc(SCC(=O)Nc3ccc(F)cc3)c3ccccc32)cc1 | inconclusive [phenotype inactive, single point] | –
57 | CCn1c(=O)cc(OCC(=O)N2CCN(c3cccc(Cl)c3)CC2)c2ccccc21 | inconclusive [phenotype inactive, single point] | –
58 | O=S(=O)(NCC(c1ccccc1)N1CCc2ccccc21)c1ccccc1 (centres undefined) | inconclusive [phenotype inactive, single point] | –
59 | CN(Cc1ccccc1)C(=O)CCS(=O)(=O)c1cc(Br)cc2c1N(C(=O)C1CC1)CC2 | inconclusive [phenotype inactive, single point] | –
